Test results reported in the BET-seq Pho4 binding data (Le et al. 2018).
Some of the results follow. These are noisy estimates, calculated here from bound and input reads.

Target: T1, Pho4 (S. cerevisiae) (UniProt P07270)
T1 sequence: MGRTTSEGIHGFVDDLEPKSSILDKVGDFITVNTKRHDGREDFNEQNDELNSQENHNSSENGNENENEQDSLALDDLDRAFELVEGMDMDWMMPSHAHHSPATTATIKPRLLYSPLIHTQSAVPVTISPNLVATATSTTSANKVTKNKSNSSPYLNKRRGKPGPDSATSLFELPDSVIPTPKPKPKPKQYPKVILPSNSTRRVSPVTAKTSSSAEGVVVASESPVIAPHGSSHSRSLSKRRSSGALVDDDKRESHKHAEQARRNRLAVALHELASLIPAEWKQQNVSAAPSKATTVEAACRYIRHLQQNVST
Test: relative binding free energy (BET-seq); higher = weaker binding
Details: reference: library average

Sequence | relative binding free energy
GGGAACACGTGGCGTA | -0.06 kcal/mol
GTGGTCACGTGATATG | 0.15 kcal/mol
GTTATCACGTGCGGGT | 0.17 kcal/mol
GGTTGCACGTGTGATC | 0.19 kcal/mol
AAGTTCACGTGCGGTT | 0.34 kcal/mol
AGTTGCACGTGGCAAT | -0.01 kcal/mol
GTTGTCACGTGTGTAC | 0.22 kcal/mol
CGGTACACGTGCTTGT | 0.07 kcal/mol
TTTTGCACGTGGGGTC | -0.19 kcal/mol
TCTTTCACGTGTTATT | 0.22 kcal/mol
ATGGACACGTGTAAAG | 0.1 kcal/mol
TCGTGCACGTGTGGCG | -0.09 kcal/mol
TCTGTCACGTGTGTGA | -0.01 kcal/mol
ACGGCCACGTGTGGTG | -0.05 kcal/mol
ATAGGCACGTGGTAAT | -0.25 kcal/mol
TTAGGCACGTGAGACG | 0.02 kcal/mol
ATTGGCACGTGAACTG | 0.04 kcal/mol
TTGTGCACGTGGATGG | 0.01 kcal/mol
GTTTTCACGTGGCGAA | 0.28 kcal/mol
TGTAGCACGTGTTTTC | -0.03 kcal/mol
GTCGTCACGTGTGTAG | 0.1 kcal/mol
TAAAGCACGTGTGTAG | -0.09 kcal/mol
CTGGTCACGTGTTTAG | 0.11 kcal/mol

Sequence | relative binding free energy
TTGGGCACGTGACCGG | -0.08 kcal/mol
TGTCTCACGTGGTGTT | 0.18 kcal/mol
TGTAACACGTGGGGTG | -0.09 kcal/mol
CAGTACACGTGTGGTG | 0.14 kcal/mol
CGGTGCACGTGGGCCG | -0.13 kcal/mol
TGAGTCACGTGTGCGT | 0 kcal/mol
AGGTTCACGTGTTTAG | 0.21 kcal/mol
AGACTCACGTGTGGTT | 0.39 kcal/mol
TTGATCACGTGAGAGC | 0.4 kcal/mol
TGCTACACGTGTTATT | 0.07 kcal/mol
ATGATCACGTGGGGTG | 0.02 kcal/mol
TGGTTCACGTGGTCCT | 0.33 kcal/mol
GTGGGCACGTGGGAGC | -0.08 kcal/mol
AAGGGCACGTGTAAGT | 0.02 kcal/mol
TTCGTCACGTGGTGGG | 0.1 kcal/mol
TTTTACACGTGGGCAG | 0.06 kcal/mol
TTGAGCACGTGGATAA | -0.09 kcal/mol
CTGAACACGTGGAAGG | 0.21 kcal/mol
AGGACCACGTGAGGTG | 0.15 kcal/mol
TTAGTCACGTGGCTCT | 0.02 kcal/mol
GACGCCACGTGGGAGG | 0.03 kcal/mol
ACCTGCACGTGGTGGT | -0.18 kcal/mol
AATTGCACGTGTCTTG | 0.11 kcal/mol

Sequence | relative binding free energy
CTATGCACGTGGATGG | -0.18 kcal/mol
TTATTCACGTGCATAT | 0.18 kcal/mol
TACTTCACGTGGGATG | 0.08 kcal/mol
CGTTACACGTGCGGGC | 0.21 kcal/mol
GGGTTCACGTGGAGTT | 0.42 kcal/mol
TCTGACACGTGATGTA | 0.12 kcal/mol
GGGTTCACGTGTAGAC | 0.31 kcal/mol
AATCGCACGTGGTTAT | -0.02 kcal/mol
GTTTACACGTGAACTT | 0.4 kcal/mol
GGTTTCACGTGTAATT | 0.47 kcal/mol
ATACGCACGTGAGTTT | 0.13 kcal/mol
TGAAACACGTGGTTCG | 0.01 kcal/mol
TCAAGCACGTGTTGGG | 0.02 kcal/mol
GAGGGCACGTGAAGAG | 0.3 kcal/mol
AGTTACACGTGGATGT | 0.14 kcal/mol
AGGTTCACGTGTGAGT | 0.34 kcal/mol
TGATTCACGTGGCCTT | 0.23 kcal/mol
GTAGCCACGTGGGTTG | -0.19 kcal/mol
TTTGGCACGTGGATAA | -0.13 kcal/mol
TAGGGCACGTGTGCTA | -0.15 kcal/mol
TGTCTCACGTGTGATA | 0.31 kcal/mol
CTATGCACGTGGAAGG | 0.03 kcal/mol
TGCTACACGTGTGGTG | 0.12 kcal/mol

Sequence | relative binding free energy
TTAGGCACGTGTGTGA | -0.01 kcal/mol
TCGGGCACGTGAGATT | 0.04 kcal/mol
TAATGCACGTGCGGTG | -0.11 kcal/mol
TCTTGCACGTGTAGGT | -0.04 kcal/mol
GTATTCACGTGGGTAA | 0.28 kcal/mol
TGAAGCACGTGCGCGT | -0.11 kcal/mol
ATGTGCACGTGATCTG | 0 kcal/mol
GTTCTCACGTGGCGGG | 0.3 kcal/mol
TAGTACACGTGTGGTG | 0.1 kcal/mol
TGTTTCACGTGAAAGT | 0.34 kcal/mol
AATGTCACGTGGCGTA | 0.01 kcal/mol
GGTGTCACGTGGGTCG | 0.04 kcal/mol
TGCGTCACGTGTTTTA | 0.09 kcal/mol
CAAGTCACGTGGGTGA | -0.08 kcal/mol
TAACGCACGTGGGTGT | -0.3 kcal/mol
ATTGTCACGTGAAAAG | 0.42 kcal/mol
AACGTCACGTGGCGGT | 0.04 kcal/mol
AGTTACACGTGGGGTA | -0.05 kcal/mol
GGATTCACGTGAGGAA | 0.4 kcal/mol
GTTTTCACGTGGGAAT | 0.32 kcal/mol
GAAGGCACGTGGTTTA | -0.25 kcal/mol
TTAATCACGTGTGGGG | 0.19 kcal/mol
GGGAGCACGTGATATT | 0.12 kcal/mol

Sequence | relative binding free energy
ATGGACACGTGACGGG | 0.06 kcal/mol
GTTCGCACGTGGTTGG | -0.05 kcal/mol
AAGCTCACGTGTAGGG | 0.2 kcal/mol
ATTGCCACGTGAGATG | 0.23 kcal/mol
AATAACACGTGTGTTG | -0.03 kcal/mol
TAATACACGTGGAGGG | -0.04 kcal/mol
TAATTCACGTGGGCAT | 0.18 kcal/mol
ATCGACACGTGTGTTT | 0.1 kcal/mol
ATGAGCACGTGATGGT | 0.01 kcal/mol
AGTATCACGTGGTAGT | 0.09 kcal/mol
CTGTACACGTGTTTGT | -0.06 kcal/mol
TAGGGCACGTGTGAAA | 0 kcal/mol
AGGCGCACGTGTAGAG | -0.16 kcal/mol
TGTCTCACGTGTGGGG | 0.21 kcal/mol
CGATGCACGTGGGAGT | -0.12 kcal/mol
TTTCACACGTGTCTGT | 0.09 kcal/mol
AGTATCACGTGGAGTT | 0.13 kcal/mol
TCGTTCACGTGTTTGT | 0.27 kcal/mol
GATTTCACGTGTAGAT | 0.32 kcal/mol
TGATTCACGTGTAGGC | 0.29 kcal/mol
GCGTTCACGTGTATGT | 0.23 kcal/mol
CTGGACACGTGGGTGT | -0.12 kcal/mol
AAGTACACGTGGGTGG | 0.04 kcal/mol
